Results: paper PMC10215934, “Daptomycin Pharmacokinetics in Blood and Wound Fluid in Critical Ill Patients with Left Ventricle Assist Devices” (Antibiotics, 2023)
“And” between values parts separate entries of the source, which are not always exact repeats. Equal entries are not always repeated.

What was measured:
[1] = Penetration of daptomycin from blood into wound fluid (AUCdrain/AUCblood, Rmcorr correlation); type: in vivo, human; settings: Day 3; mean ± SD, n = 9
Description: Samples were taken following the schedule below (Table 3).
All daptomycin values in the blood serum and wound fluids, from pleura and mediastinum, were examined among themselves and over time using a repeated measure correlation. Continuous measures were summarized as the means, standard deviation, medians, and interquartile ranges (IQR) according to the data distribution. The normality of the distribution was assessed by investigating skewness and kurtosis, as well as QQ graphs, box plots, and histograms. The association between blood and wound fluid daptomycin mean levels was examined using repeated measures correlation (R package rmcorr; version 0.5.4), which determined the relationship between two continuous variables while controlling for individual variances. The rmcorr correlation coefficient is a common statistical method for paired measurements assessed on two or more occasions for multiple individuals. Similar to the Pearson correlation coefficient, the rmcorr coefficient (rrm) ranges from −1 to +1 and reports the strength of the linear association between two variables. Linear mixed effect models assessed the difference in the mean daptomycin concentration in the blood serum during the three-time points with random intercepts; the slopes were set as fixed parameters. A two-tailed p-value below 0.05 was considered statistically significant. […]

[2] = Daptomycin pharmacokinetics in blood serum, HPLC-UV; settings: for Cminblood / half-life: LVAD patients, 5-8 mg/kg iv once daily, mean ± SD, n = 9; for level at 1 h / level at 12 h / level at 24 h / half-life: human, in vivo, iv; for level at 1 h / level at 12 h / level at 24 h: Daptomycin concentration, blood; for half-life: t1/2blood (terminal half-life blood)
Description: (§1) This single-center prospective trial was carried out in the intensive care unit 39 of the department of anesthesia and intensive care medicine at the university hospital of Tübingen from April 2017 to March 2019. All patients scheduled for implantation of a left ventricular assist device were screened for inclusion and exclusion criteria. All patients received prophylactic antibiotic therapy, including daptomycin, during the first 5 or 7 postoperative days. Daptomycin (5 to 8 mg per kg of body weight) was infused over 30 min, once daily, at 7 a.m. Samples were taken following the schedule below (Table 3).
(§2) Blood samples were drawn from the arterial catheter already in place and considering hygiene requirements. The fluid samples from the drain systems were taken from the incorporated port under consideration of the standard hygienic procedures to avoid any contamination of the system. The samples were labeled with the number of the patient, the time of collection, and the date following the study protocol. All samples were centrifuged, and the supernatant was stored at −80 °C until dispatch to the laboratory in Heidenheim (Department of Pharmacy, General Hospital of Heidenheim). Measurements were performed using high-performance liquid chromatography with ultraviolet detection (HPLC-UV).
(§3) Daptomycin (5–8 mg per kg body weight; MSD; Switzerland) was infused intravenously once daily as part of an anti-infective regime to prevent early infections of either the implanted pump or the driveline at 7 am. Blood samples were drawn from the arterial catheter already in place, and samples of wound fluids were taken from the drainage system directly from the incorporated port before they reached the container at indicated time points, considering standard hygienic requirements.
(§4) The HPLC-UV measurement for daptomycin was conducted as part of the routine TDM program at the hospital of Heidenheim. Although data for certain target levels are sparse, there is an approach to reach AUC24/MHK >666 mg*h/L for effectivity and trough levels <24 mg/L and to minimize musculosceletal toxicity.
(§5) A detailed description of the HPLC method and validation process is included in the supplementary material (Informations S1). Briefly, a gradient method carried out the separation of daptomycin in the serum and wound fluid on a C8 reversed-phase column.

[3] = Daptomycin concentration in wound (drainage) fluid, HPLC-UV
Description: as §1, §2, §3, §4, §5

[4] = human, in vivo, iv, 6 mg/kg, Daptomycin concentration, drainage
[5] = human, in vivo, iv, 8 mg/kg, Daptomycin concentration, drainage

Q: Which “PR: penetration ratio (AUCdrain/AUCblood)” value [1] does the source give for `CCCCCCCCCC(=O)N[C@@H](Cc1c[nH]c2ccccc12)C(=O)N[C@H](CC(N)=O)C(=O)N[C@@H](CC(=O)O)C(=O)N[C@@H]1C(=O)NCC(=O)N[C@@H](CCCN)C(=O)N[C@@H](CC(=O)O)C(=O)N[C@H](C)C(=O)N[C@@H](CC(=O)O)C(=O)NCC(=O)N[C@H](CO)C(=O)N[C@@H]([C@H](C)CC(=O)O)C(=O)N[C@@H](CC(=O)c2ccccc2N)C(=O)O[C@@H]1C` [Daptomycin] here?
A: 0.5 ± 0.1

Q: What about the Cminblood ([2]; Day 1) of the same compound?
A: 24100 ± 5900 ng/mL

Q: What about the Cminblood ([2]; Day 2) of the same compound?
A: 29800 ± 6700 ng/mL

Q: What about the Cminblood ([2]; Day 3) of the same compound?
A: 29900 ± 10200 ng/mL

Q: What about the level at 1 h ([2]; 4 mg/kg) of the same compound?
A: 126000 ng/mL

Q: What about the level at 12 h ([2]; 4 mg/kg) of the same compound?
A: 50500 ng/mL

Q: What about the level at 24 h ([2]; 4 mg/kg) of the same compound?
A: 38600 ng/mL

Q: What about the level at 1 h ([2]; 6 mg/kg) of the same compound?
A: 69000 ng/mL

Q: And the level at 12 h ([2]; 6 mg/kg)?
A: 41700 ng/mL

Q: What about the level at 24 h ([2]; 6 mg/kg) of the same compound?
A: 30100 ng/mL

Q: What about the level at 1 h ([2]; 8 mg/kg) of the same compound?
A: 92800 ng/mL

Q: What about the level at 12 h ([2]; 8 mg/kg) of the same compound?
A: 68400 ng/mL

Q: And the level at 24 h ([2]; 8 mg/kg)?
A: 32600 ng/mL

Q: And the half-life ([2]; Day 1)?
A: 14.1 ± 4 h

Q: What about the half-life ([2]; Day 2) of the same compound?
A: 15.8 ± 3.2 h

Q: What about the half-life ([2]; Day 3) of the same compound?
A: 20.5 ± 6.7 h

Q: What about the “Daptomycin concentration, drainage” value ([3]; Patient 7 (5 mg/kg), Drainage 1, Day 1 08:00, 1 h after infusion) of the same compound?
A: 0 mg/L

Q: What about the “Daptomycin concentration, drainage” value ([3]; Patient 7 (5 mg/kg), Drainage 2, Day 1 08:00, 1 h after infusion) of the same compound?
A: 0 mg/L

Q: What about the “Daptomycin concentration, drainage” value ([3]; Patient 9 (6 mg/kg, dialysis), Drainage 2, Day 1 08:00, 1 h after infusion) of the same compound?
A: 0 mg/L

Q: And the “Daptomycin concentration, drainage” value ([3]; human, in vivo, iv, 4 mg/kg, 1 h)?
A: 10.1 mg/L

Q: What about the “Daptomycin concentration, drainage” value ([3]; human, in vivo, iv, 4 mg/kg, 6 h) of the same compound?
A: 15.6 mg/L

Q: What about the “Daptomycin concentration, drainage” value ([3]; human, in vivo, iv, 4 mg/kg, 9 h) of the same compound?
A: 33.2 mg/L

Q: What about the “Daptomycin concentration, drainage” value ([3]; human, in vivo, iv, 4 mg/kg, 24 h) of the same compound?
A: 15 mg/L

Q: What about the “Daptomycin concentration, drainage” value ([3]; human, in vivo, iv, 6 mg/kg, 12 h) of the same compound?
A: 22.5 mg/L

Q: What about the level at 6 h [3, 4] of the same compound?
A: 38200 ng/mL and 21800 ng/mL

Q: What about the level at 9 h [3, 4] of the same compound?
A: 31100 ng/mL

Q: What about the level at 12 h [3, 4] of the same compound?
A: 32800 ng/mL

Q: What about the “Daptomycin concentration, drainage” value ([3]; human, in vivo, iv, 7 mg/kg, 1 h) of the same compound?
A: 15.2 mg/L

Q: And the “Daptomycin concentration, drainage” value ([3]; human, in vivo, iv, 7 mg/kg, 3 h)?
A: 20.7 mg/L

Q: And the “Daptomycin concentration, drainage” value ([3]; human, in vivo, iv, 7 mg/kg, 9 h)?
A: 27.5 mg/L

Q: And the “Daptomycin concentration, drainage” value ([3]; human, in vivo, iv, 7 mg/kg, 12 h)?
A: 27.3 mg/L

Q: And the “Daptomycin concentration, drainage” value ([3]; human, in vivo, iv, 7 mg/kg, 24 h)?
A: 20.3 mg/L

Q: What about the level at 6 h ([3]; human, in vivo, iv, 8 mg/kg) of the same compound?
A: 24300 ng/mL

Q: What about the level at 9 h [3, 5] of the same compound?
A: 21500 ng/mL

Q: And the level at 12 h [3, 5]?
A: 20600 ng/mL
